Hit rate of the full screen: of about 310,000 compounds, about 2,200 (0.71%) showed an effect of 50% or more. The effect is printed as a negative number. The list shows a part of the results.

For the experiment, the target named is human ether-à-go-go-related gene (hERG) potassium channel (human, UniProt Q12809). Put plainly: primary screen, population patch clamp on CHO cells stably expressing hERG.
Chain of human ether-à-go-go-related gene (hERG) potassium channel (Q12809 whole entry, looked up): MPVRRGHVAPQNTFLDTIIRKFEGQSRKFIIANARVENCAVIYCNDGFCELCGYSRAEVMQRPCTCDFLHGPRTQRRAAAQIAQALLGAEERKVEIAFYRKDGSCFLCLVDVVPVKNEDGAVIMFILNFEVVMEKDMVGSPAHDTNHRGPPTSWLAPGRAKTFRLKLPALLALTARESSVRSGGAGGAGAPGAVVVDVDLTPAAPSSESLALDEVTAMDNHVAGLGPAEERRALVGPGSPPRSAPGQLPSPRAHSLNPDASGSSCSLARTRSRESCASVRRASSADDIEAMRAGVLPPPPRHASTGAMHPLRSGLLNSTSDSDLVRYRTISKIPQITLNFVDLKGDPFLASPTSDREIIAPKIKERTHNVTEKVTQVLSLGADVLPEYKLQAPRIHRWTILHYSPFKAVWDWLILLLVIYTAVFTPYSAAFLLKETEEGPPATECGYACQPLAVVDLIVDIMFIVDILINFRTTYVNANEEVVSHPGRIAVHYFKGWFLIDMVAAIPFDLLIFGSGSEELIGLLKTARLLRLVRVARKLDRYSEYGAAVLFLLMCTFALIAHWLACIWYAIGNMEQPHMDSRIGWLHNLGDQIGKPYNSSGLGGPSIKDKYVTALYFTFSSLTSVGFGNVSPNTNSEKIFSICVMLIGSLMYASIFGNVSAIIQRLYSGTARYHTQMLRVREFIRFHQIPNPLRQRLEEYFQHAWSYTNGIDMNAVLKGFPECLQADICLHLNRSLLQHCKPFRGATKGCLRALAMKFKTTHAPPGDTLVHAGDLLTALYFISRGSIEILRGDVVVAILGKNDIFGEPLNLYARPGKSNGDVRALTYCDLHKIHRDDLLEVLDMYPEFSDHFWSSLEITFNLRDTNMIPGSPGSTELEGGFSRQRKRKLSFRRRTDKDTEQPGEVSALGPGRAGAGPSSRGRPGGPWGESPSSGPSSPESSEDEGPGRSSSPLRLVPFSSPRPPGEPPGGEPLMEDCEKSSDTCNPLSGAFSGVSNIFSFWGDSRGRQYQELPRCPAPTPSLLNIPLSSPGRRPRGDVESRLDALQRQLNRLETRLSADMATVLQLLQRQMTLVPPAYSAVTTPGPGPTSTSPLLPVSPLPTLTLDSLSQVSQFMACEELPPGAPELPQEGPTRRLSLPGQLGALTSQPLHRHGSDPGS
For `COc1cccc(C2=CC(c3cc(OC)ccc3OC)n3nnnc3N2)c1` (centres unmarked), the “hERG current change (%, negative = inhibition) at 1uM” value was 15.2%.

As for `Cc1ccc(C(=O)NCCNC(=O)c2ccccn2)cc1`, the “hERG current change (%, negative = inhibition) at 1uM” value was 8.75%.

Regarding `CCN(CC)c1nc2ccccc2nc1-n1nc(C)cc1C`, the “hERG current change (%, negative = inhibition) at 1uM” value is given as 3.94%.

Regarding `CC1Cn2c(nnc2-c2cccc(Cl)c2)S1` (centres unmarked), the “hERG current change (%, negative = inhibition) at 1uM” value was found to be 5.03%.

On to `Cc1ccccc1NS(=O)(=O)c1ccc2[nH]c(=O)[nH]c2c1`, for which the “hERG current change (%, negative = inhibition) at 1uM” value was 9.86%.

As for `Clc1ccc2c(c1)C(c1ccccc1Cl)=NCc1nncn1-2`, the “hERG current change (%, negative = inhibition) at 1uM” value is listed as 2.33%.

With `Cc1cc(C2=NNC(=NC3CC3)SC2)c(C)n1-c1ccccc1F`, the “hERG current change (%, negative = inhibition) at 1uM” value amounted to 5.81%.

For the compound `CCOC(=O)C1CCN(C(=O)CCn2c(=O)[nH]c3ccccc3c2=O)CC1`, the “hERG current change (%, negative = inhibition) at 1uM” value was 6.43%.

Regarding `CCOC(=O)c1ccc2c(c1)n(CC)c(/C=C/Nc1ccccc1)[n+]2CC.[I-]`, the “hERG current change (%, negative = inhibition) at 1uM” value is on record as -86.7%.

With `N#Cc1c(SCc2ccc(Cl)cc2)sc(C(=O)c2ccccc2)c1N`, the “hERG current change (%, negative = inhibition) at 1uM” value was 15.2%.

Turning to `Cc1c(C(=O)NCCC2=CCCCC2)oc2ccc(S(=O)(=O)N3CCOCC3)cc12`, the “hERG current change (%, negative = inhibition) at 1uM” value is -3.51%.

As to `O=C1/C(=C/c2coc3ccc(O)cc3c2=O)SC(=S)N1c1ccccc1`, the “hERG current change (%, negative = inhibition) at 1uM” value was determined as 15.4%.

Regarding `CCOC(=O)N1CCN(C(=O)CCC(=O)N2CCOc3ccc(C)cc32)CC1`, the “hERG current change (%, negative = inhibition) at 1uM” value is 9.32%.

On to `COc1ccc(CCNC(=O)/C=C/c2ccco2)cc1OC`, for which the “hERG current change (%, negative = inhibition) at 1uM” value is 5.95%.

`CC(C)n1nccc1N(Cc1ccc(C#N)cc1)S(=O)(=O)c1ccccc1`: the “hERG current change (%, negative = inhibition) at 1uM” value was -5.13%.

`C#CCSc1nc2ccccc2n1C(=O)c1ccc(S(=O)(=O)N2CCCCC2)cc1`: the “hERG current change (%, negative = inhibition) at 1uM” value is listed as 6.52%.

On to `CCOC(=O)c1sc(N)c(C#N)c1CSc1nc2ccc(C)cc2[nH]1`, for which the “hERG current change (%, negative = inhibition) at 1uM” value is given as 4.05%.

Take `O=C(c1cnn2c(C(F)(F)F)cc(-c3ccco3)nc12)N1CCCc2ccccc21`: the “hERG current change (%, negative = inhibition) at 1uM” value is reported as -1.81%.

`Cc1cc(N2CCOCC2)nc(-c2ccccc2O)n1`: the “hERG current change (%, negative = inhibition) at 1uM” value turned out to be 7.78%.

With `CC1CCN(C(=O)c2ccc(NS(=O)(=O)c3cccs3)cc2)CC1`, the “hERG current change (%, negative = inhibition) at 1uM” value is reported as 15.7%.

As for `CCOC(=O)c1sc2nc(C)nc(SCC(=O)NC3CCS(=O)(=O)C3)c2c1C` (centres unmarked), the “hERG current change (%, negative = inhibition) at 1uM” value was found to be 6.57%.

Take `O=C(c1oc(=O)c2ccccc2c1-c1ccccc1)N1CCOCC1`: the “hERG current change (%, negative = inhibition) at 1uM” value is given as -6.9%.

For `O=C(N/N=C/c1ccoc1)c1ccc(Cl)cc1`, the “hERG current change (%, negative = inhibition) at 1uM” value was -14.6%.

With `CCC(C)n1c(SCC(=O)NCCc2ccc(S(N)(=O)=O)cc2)nc2ccsc2c1=O` (centres unmarked), the “hERG current change (%, negative = inhibition) at 1uM” value was determined as 8.94%.

As to `Br.COC(=O)c1ccc(CN2CCSC2=N)cc1`, the “hERG current change (%, negative = inhibition) at 1uM” value was 13.5%.

Turning to `CCc1nc(SCC(=O)N2CCN(C(=O)c3ccco3)CC2)c2c3c(sc2n1)CCCC3`, the “hERG current change (%, negative = inhibition) at 1uM” value is listed as -22.4%.

Take `Cc1ccc(NC(=O)COC(=O)C2CC3CCCC(C2)C3=O)c([N+](=O)[O-])c1` (centres unmarked): the “hERG current change (%, negative = inhibition) at 1uM” value was 9.56%.

As for `O=C(Nc1ccc(S(=O)(=O)N2CCOCC2)cc1)c1ccc([N+](=O)[O-])o1`, the “hERG current change (%, negative = inhibition) at 1uM” value is given as 9.23%.

Consider `Cc1c(CC(=O)NCCC(=O)O)c(=O)oc2cc3occ(-c4ccccc4)c3cc12`, for which the “hERG current change (%, negative = inhibition) at 1uM” value came out at 12.1%.

With `COc1ccccc1CCNCc1cc2c(cc1[N+](=O)[O-])OCO2`, the “hERG current change (%, negative = inhibition) at 1uM” value is given as -0.541%.

`O=C(O)/C(=C\c1ccc(F)cc1)c1ccc(-c2ccccc2)cc1`: the “hERG current change (%, negative = inhibition) at 1uM” value worked out at 18.3%.

As for `O=C(NNC(=S)Nc1cccc(C(F)(F)F)c1)c1ccccc1Cl`, the “hERG current change (%, negative = inhibition) at 1uM” value was 2.16%.

Take `CSc1nc2sccc2c(=O)[nH]1`: the “hERG current change (%, negative = inhibition) at 1uM” value is listed as 14.9%.

With `Cc1ccc(C)c(NC(=O)CN(C)C(=O)C2CCN(S(=O)(=O)c3ccc4c(c3)OCCO4)CC2)c1`, the “hERG current change (%, negative = inhibition) at 1uM” value is 5.83%.

Turning to `Cc1c(C)c2cc(Cl)c(OCC(=O)N3CCN(c4ccc(F)cc4)CC3)cc2oc1=O`, the “hERG current change (%, negative = inhibition) at 1uM” value was 12.9%.

`O=C1c2cccnc2C(Nc2ccccc2Br)N1Cc1ccco1` (centres unmarked): the “hERG current change (%, negative = inhibition) at 1uM” value was 10.2%.

On to `Cn1nnc2cc(C(=O)Nc3ccc4ccccc4c3)ccc21`, for which the “hERG current change (%, negative = inhibition) at 1uM” value is 9.96%.

In the case of `CC(CN1CCCCC1)OC(=O)CCc1ccccc1.Cl` (centres unmarked), the “hERG current change (%, negative = inhibition) at 1uM” value was determined as 7.8%.

Turning to `O=C(NCc1ccco1)C1CCCN1C(=O)NCc1ccccc1` (centres unmarked), the “hERG current change (%, negative = inhibition) at 1uM” value was found to be 3.67%.

`COc1ccc(C(C(=O)NC2CCCC2)N(Cc2cccnc2)C(=O)c2snc(C(N)=O)c2N)cc1OC` (centres unmarked): the “hERG current change (%, negative = inhibition) at 1uM” value turned out to be 13.2%.

On to `CCc1ccc(NC(=O)COC(=O)c2nc3nc(C)cc(C)n3n2)cc1`, for which the “hERG current change (%, negative = inhibition) at 1uM” value is 1.73%.

Take `O=C(C[n+]1ccn(CCCNP2(=O)C=C(c3ccccc3)OC(c3ccccc3)=C2)c1)c1cccs1.[Br-]`: the “hERG current change (%, negative = inhibition) at 1uM” value is given as -25.7%.

In the case of `Cc1cccc(C(=O)N2CCc3cc(-c4csc(NC(=O)CN5CCCC5)n4)ccc32)c1`, the “hERG current change (%, negative = inhibition) at 1uM” value amounted to 9.02%.

`COc1ccc(-c2cc(C(F)F)n3ncc(C(=O)n4ccnc4C)c3n2)cc1`: the “hERG current change (%, negative = inhibition) at 1uM” value is recorded as 17.8%.

Values taken from article PMC4336329 (PLoS ONE, 2015).
